# Assay results reported in the supplement of paper PMC3334620.
# Whole data set: some 33,000 sequences, median “E-score (-0.5 to 0.5)” near -0.043, cut for the highest 2% near 0.37. The list shows a part of the results.
# Molecular target: T1, Upc2 (UniProt Q12151)
# T1 sequence: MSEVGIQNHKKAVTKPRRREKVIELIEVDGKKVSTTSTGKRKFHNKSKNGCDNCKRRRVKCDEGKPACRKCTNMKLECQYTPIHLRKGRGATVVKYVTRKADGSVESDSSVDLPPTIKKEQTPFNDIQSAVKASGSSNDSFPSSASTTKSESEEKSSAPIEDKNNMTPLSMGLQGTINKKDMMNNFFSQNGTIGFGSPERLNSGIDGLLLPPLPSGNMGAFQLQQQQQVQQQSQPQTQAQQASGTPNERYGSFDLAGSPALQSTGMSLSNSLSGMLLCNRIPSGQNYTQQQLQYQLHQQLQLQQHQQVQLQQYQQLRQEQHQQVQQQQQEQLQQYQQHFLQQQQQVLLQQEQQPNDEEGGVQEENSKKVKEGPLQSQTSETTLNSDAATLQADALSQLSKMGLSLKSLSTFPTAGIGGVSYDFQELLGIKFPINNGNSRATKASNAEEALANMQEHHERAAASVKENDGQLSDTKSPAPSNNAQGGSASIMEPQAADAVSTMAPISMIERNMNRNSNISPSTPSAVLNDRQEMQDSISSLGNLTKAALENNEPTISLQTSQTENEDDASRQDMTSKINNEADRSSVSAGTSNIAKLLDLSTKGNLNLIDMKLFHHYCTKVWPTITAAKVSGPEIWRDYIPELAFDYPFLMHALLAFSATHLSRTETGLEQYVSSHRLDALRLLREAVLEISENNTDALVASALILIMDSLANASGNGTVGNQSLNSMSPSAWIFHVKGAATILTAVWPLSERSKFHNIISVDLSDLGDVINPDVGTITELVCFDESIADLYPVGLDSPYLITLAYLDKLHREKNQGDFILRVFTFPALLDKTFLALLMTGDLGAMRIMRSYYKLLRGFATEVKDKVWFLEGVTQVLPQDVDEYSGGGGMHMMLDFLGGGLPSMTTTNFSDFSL
# Test: PBM E-score (8-mer binding enrichment) (E-score (-0.5 to 0.5)); higher = stronger / more preferred TF binding; most listed sequences are background and not binding sites
# Details: protein concentration: 200 nM; construct: GST-full length
# Outline: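 GST-tagged yeast TFs (full-length or DNA-binding domain) were made by PURExpress in vitro transcription/translation and applied at about 100-200 nM to universal all-10-mer Agilent arrays. The arrays were made double-stranded by primer extension, on fresh or once-stripped slides. Bound protein was detected with fluorescent anti-GST, and scans were normalised with masliner. Each ungapped eight-base word, pooled with its reverse complement, received an E-score (modified Wilcoxon-Mann-Whitney statistic) from the Universal PBM Analysis Suite.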
row,Sequence,PBM E-score
1,CATTGCTA,-0.0342
2,CCACTACA,-0.18
3,AGGGAGAA,-0.32
4,CAACCAAA,-0.00055
5,AACTCTAC,0.00393
6,ACAAGTAG,-0.361
7,AGGTGTCC,-0.0415
8,AAGAAAGT,0.123
9,GGTCATCA,-0.013
10,ACTCACGC,0.0702
11,CATCGTAA,0.389
12,ACTCTATA,0.0319
13,GTGCAATA,-0.0436
14,AAATGCGC,-0.0546
15,GACCCATA,0.016
16,GATAATGA,-0.0247
17,AACCGTTA,0.111
18,AACCGCCG,0.0841
19,AACAGGAC,-0.0982
20,AGACAATG,-0.027
21,GAGCTACA,-0.311
22,CATATATA,0.113
23,AGGGACCC,-0.16
24,CCTGAGAC,-0.183
25,ACGATCGG,0.295

row,Sequence,PBM E-score
1,CGCCGTTC,0.339
2,TCCTTTCA,-0.056
3,AGTAAAGC,-0.0204
4,ACTCCGTA,0.29
5,AGACCAGC,-0.327
6,CAAGATAA,-0.0557
7,ATATGTAA,-0.144
8,ATAATGGG,0.078
9,CGGACGAC,-0.21
10,ATCGACTA,-0.1
11,TATCAGCA,-0.108
12,CAAGATGA,-0.177
13,ACCCAAGG,0.0128
14,TAACGGGA,0.0733
15,ACGGAACT,0.0402
16,AGAGATCA,-0.181
17,CTGTAATC,-0.0664
18,ATCGAAAT,-0.0104
19,CAAGTTCG,0.0878
20,AGACGTTC,0.121
21,ATGCGCCA,-0.0886
22,ACCTAAAG,-0.111
23,GTCAAGAC,-0.383
24,CCAAACCG,-0.0754
25,GCTCCGAC,-0.188

row,Sequence,PBM E-score
1,ATCTGGGC,-0.188
2,ATTCTGCA,0.0977
3,GCAGTCCA,-0.0795
4,ATTGTGGG,-0.282
5,AGCGCGAT,0.146
6,CTTATCGC,-0.00093
7,TGGCACCA,-0.193
8,GACCGCAC,0.0252
9,ACGGTTCC,0.146
10,CGTCGGAG,-0.056
11,GGGCGCCC,-0.0753
12,CACGTCTC,-0.00795
13,ATAAACCG,0.0951
14,CTAATGCA,-0.0701
15,ACCCTTTC,-0.133
16,ACAGACGC,-0.107
17,GAACGTGA,0.063
18,GCCTCGTA,0.473
19,CACCTGCA,-0.204
20,GTAGCCGA,0.0295
21,CATGCTAA,-0.2
22,GACGCTCC,-0.0386
23,AACCGACC,0.257
24,ATGCTGAG,-0.269
25,CAACGCAG,-0.0855

row,Sequence,PBM E-score
1,GAATAACC,0.0541
2,GCCTGAAA,-0.045
3,GCGCACCC,-0.013
4,ACACACGG,-0.177
5,CAGGTTTA,0.0194
6,ATGAGAAA,-0.0659
7,TAAGACGA,0.15
8,AGCGATGA,0.0502
9,AATAAGCC,-0.208
10,ACTGGTCT,-0.0645
11,CGCAGTTA,0.00034
12,CCGCCTGA,-0.158
13,ATGAGCAT,-0.144
14,GAATCACC,0.0205
15,GTATCGCA,0.0755
16,CGGGACCG,0.0515
17,ACTAGACT,0.0823
18,AGTGTCAA,-0.184
19,CAGATATC,-0.185
20,ACGGTGCC,0.227
21,ACAAAGTC,-0.0337
22,CCGCTGAC,-0.129
23,AGTGAAAA,-0.129
24,ACCTAGGT,0.00316
25,CCCGCACG,-0.0501

row,Sequence,PBM E-score
1,CAGAGTGG,-0.068
2,AGAAACAG,-0.167
3,AGACGCCT,-0.109
4,GATTACCA,-0.0634
5,AAAGTAGT,-0.0437
6,CATTAGGG,-0.165
7,ACGTAGTG,-0.111
8,TCAATCGA,-0.0272
9,ATCCCAAA,-0.128
10,CCAGGCCC,-0.0693
11,ATTGCCCC,-0.283
12,CCTACTAC,-0.098
13,ACATCACA,-0.0803
14,GCGTCAGA,-0.176
15,GCCGATTA,0.00607
16,AACTACTA,0.0312
17,CTGTCAAG,-0.0725
18,GCTTTACC,0.148
19,CCTCAAAA,-0.19
20,CTGACAAG,-0.0909
21,GGAACCCC,-0.0362
22,GGCCTACC,-0.221
23,TAACTGGA,-0.168
24,GCCGTGCA,-0.291
25,CCTCGTAC,0.477

row,Sequence,PBM E-score
1,AACTTTTA,0.273
2,ATGAGTAC,0.143
3,CCTAGGTC,-0.16
4,ATCAAAAG,0.00236
5,AAGACGCC,-0.0653
6,CTAATATA,0.0898
7,AGGCCAGG,-0.146
8,CATGTCGC,0.136
9,AGCTAGGC,-0.258
10,ACGTCCCA,-0.208
11,ACTGCGAA,-0.0814
12,AGGGTAGA,-0.15
13,GGTACGGA,0.355
14,ATGACTAC,0.0234
15,CTAAGCGA,0.416
16,CCAGTAAG,-0.0281
17,GCGCAGCA,-0.33
18,GCTCCTAC,0.0461
19,GCAGCGAC,-0.113
20,GGTTGCCA,-0.275
21,AGCCCCCG,-0.142
22,ACAAGATA,-0.0572
23,CGCCAACG,0.123
24,GGACGGAA,-0.0928
25,GGCACAGA,-0.0746

row,Sequence,PBM E-score
1,AGCCGCCT,-0.201
2,CGCGGACG,-0.103
3,ACTCTGAT,-0.142
4,ACTGGCGC,-0.0129
5,CCCTTCTA,-0.296
6,ATTGAACG,0.356
7,ATCGTTGC,0.212
8,CTGGTAAA,-0.0673
9,ACGCTTTG,0.0831
10,GCTATCCC,-0.119
11,CAGCCTAG,-0.156
12,AAGCAAAT,0.0325
13,AGGACCAG,-0.266
14,ATCACGAG,0.0301
15,AGCGTAAG,0.124
16,TGTATGAA,-0.0102
17,AACTTCAT,-0.0399
18,GGGATTCA,-0.143
19,CCTGTTCG,0.161
20,CCACCTCG,0.0683
21,ACTGCCTA,-0.0135
22,AAAAGTAA,0.0218
